{
  "source": "PubChem BioAssay AID1454",
  "about": "(National Center for Advancing Translational Sciences (NCATS), 2008)",
  "note": "Several values for one entry are separate records, joined by “and”; a condition that tells them apart may be missing. Equal entries are not always repeated. The campaign covered roughly 130,000 compounds. About 550 (0.42%) were called active. The inconclusive results got no clear call from the source; some entries with a clear call stand among them for comparison. Calls follow the shape of the dose curve; as a rule, active = well fitted inhibition curve with a large enough effect; inconclusive = small, poorly fitted or top-dose-only effect, or effect the other way; inactive = flat fitted curve, though single readings scatter. Potencies of inconclusive entries are left out as doubtful fits. Some compounds were tested as several samples or in several runs, with calls that do not always agree. Potency is read from the fitted curve at half-maximal effect; tags tell the direction and shape of the fitted curve.",
  "data": [
    {"assay": "qHTS Assay for Inhibitors of the ERK Signaling Pathway using a Homogeneous Screening Assay; Stimulation with EGF; also: nearly all actives have a fitted effect of over 55% in size;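 as to activity change, negative = inhibition: plate controls were stimulated vehicle wells for no effect and unstimulated vehicle basal for full effect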", "settings": "HEK293-V1b, EGF-stimulated phospho-ERK AlphaScreen; activity change, negative = inhibition: at the top concentration", "how_it_was_run": "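EGF-stimulated (25 nM, 5 min) phospho-ERK in HEK293 cells stably expressing V1b, cells pretreated 30 min with compound at 37C. Homogeneous AlphaScreen read on lysates.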", "values": [
      {"smiles": "CCCOC(=O)c1cccc(Nc2nc(-c3cccnc3)nc3ccccc23)c1", "Potency": "inconclusive [inhibitor, single point]"},
      {"smiles": "O=C(N/N=C/c1ccc(-c2ccccc2)o1)c1ccccc1O", "Potency": "inconclusive [inhibitor, single point]"},
      {"smiles": "CCOc1ccc(Br)cc1CNc1ccc2c(c1)OCCO2", "Potency": "inconclusive [inhibitor, partial curve]"},
      {"smiles": "O=C(Nc1ccc(C(F)(F)F)cc1)c1cc(S(=O)(=O)NCC2COc3ccccc3O2)ccc1F", "note": "(stereo not drawn)", "Potency": "inconclusive [inhibitor, single point]"},
      {"smiles": "CCn1c(C)nc2cc(S(N)(=O)=O)ccc21", "activity change, negative = inhibition": "inactive: -0.0079%"},
      {"smiles": "Cc1cc(C)n(-c2nnc(N3CCN(c4ccc(F)cc4)CC3)nn2)n1", "Potency": "inconclusive [inhibitor, partial curve]"},
      {"smiles": "CCCN1CCN(c2ncnc3scc(C4COc5ccccc5O4)c23)CC1", "note": "(stereo not drawn)", "Potency": "inconclusive [inhibitor, partial curve]"},
      {"smiles": "CCN(c1ccccc1)S(=O)(=O)c1ccc(Cl)c(NC(=O)COC(=O)c2cc(O)c3ccccc3c2O)c1", "Potency": "inconclusive [inhibitor, partial curve]"},
      {"smiles": "COC(=O)c1ccc(N2C(=O)CC(SCC(=O)Nc3ccc(OC)cc3)C2=O)cc1", "note": "(stereo not drawn)", "Potency": "inconclusive [inhibitor, single point]"},
      {"smiles": "CCOc1cc(/C=C2/C(=O)ON=C2C)ccc1OCc1ccccc1", "Potency": "inconclusive [inhibitor, single point]"},
      {"smiles": "O=S(=O)(c1ccc(-c2csc(Nc3ccc(F)cc3)n2)cc1)N1CCCC1", "Potency": "inconclusive [inhibitor, single point]"},
      {"smiles": "O=C(CCc1ccc(O)cc1)c1c(O)cc(O)cc1O", "Potency": "inconclusive [inhibitor, single point]"},
      {"smiles": "Cc1ccc(NC(=O)N[C@@H](CC(C)C)C(=O)O)c(C)c1", "Potency": "inconclusive [activator, full curve, poor fit]"},
      {"smiles": "N/C(=N\\OC(=O)c1cccs1)c1ccccc1", "activity change, negative = inhibition": "inactive: 4.74%"},
      {"smiles": "CC1=C(C(=O)OCc2ccc3c(c2)OCO3)C(c2ccc(O)c([N+](=O)[O-])c2)NC(=O)N1", "note": "(stereo not drawn)", "activity change, negative = inhibition": "inactive: -0.543%"},
      {"smiles": "COc1ccc2cc(C(=O)C3CCCN(C(=O)Cc4c(C)noc4C)C3)ccc2c1", "note": "(stereo not drawn)", "Potency": "inconclusive [inhibitor, single point]"},
      {"smiles": "Cc1ccc(/C=N/Nc2nc3ccccc3s2)o1", "Potency": "inconclusive [inhibitor, single point]"},
      {"smiles": "O=C(NC1CCS(=O)(=O)C1)/C(=C\\c1ccco1)NC(=O)c1ccccc1", "note": "(stereo not drawn)", "activity change, negative = inhibition": "inactive: -0.317% [at 57.5 µM]"},
      {"smiles": "O=C(Nc1cccc(S(=O)(=O)c2cccc(NC(=O)c3ccco3)c2)c1)c1ccco1", "Potency": "inconclusive [inhibitor, single point]"},
      {"smiles": "COc1ccc(-n2nc(C(N)=O)c(O)cc2=O)cc1", "activity change, negative = inhibition": "inactive: 3.45%"},
      {"smiles": "COC1=C(Nc2ccc(C)cc2)C(=O)c2ccccc2C1=O", "Potency": "active: 11.2 µM"},
      {"smiles": "c1cnc2c(-c3nccc4c3[nH]c3ccccc34)cccc2c1", "activity change, negative = inhibition": "inactive: -7.05%"},
      {"smiles": "CC(/C=N/NC(=O)c1cc(-c2cccn2C)n[nH]1)=C\\c1ccccc1", "Potency": "inconclusive [inhibitor, single point]"},
      {"smiles": "CCOC(=O)N1CCN(c2nc(N(c3ccccc3)c3ccccc3)nc(-n3ccnc3)n2)CC1", "Potency": "inconclusive [inhibitor, partial curve, poor fit]"},
      {"smiles": "COCCCNC(=S)N(Cc1ccccc1)Cc1ccc(F)cc1", "activity change, negative = inhibition": "inactive: 0.532%"},
      {"smiles": "COc1ncc2nc(-c3cc(F)cc(F)c3)c(=O)n(CCc3ccccc3)c2n1", "Potency": "inconclusive [inhibitor, partial curve, poor fit]"},
      {"smiles": "C=C(C)COc1ccc(-c2[nH]ncc2-c2ccc(Br)cc2)c(O)c1", "Potency": "inconclusive [inhibitor, single point]"},
      {"smiles": "Oc1c(I)cc(Cl)c2cccnc12", "Potency": "inactive"},
      {"smiles": "CCCn1c(O)c(N=NC(=O)c2ccco2)c2ccccc21", "activity change, negative = inhibition": "inactive: 4%"},
      {"smiles": "CCC(=O)Nc1cccc(-c2csc(-c3ccccc3)n2)c1", "Potency": "inconclusive [inhibitor, single point]"},
      {"smiles": "C=CC(C1=CC(=O)C(OC)=CC1=O)c1ccc(OC)cc1", "note": "(stereo not drawn)", "Potency": "inconclusive [inhibitor, single point]"},
      {"smiles": "Cc1cccc(N=c2c([N+](=O)[O-])nn(-c3ccc(Cl)cc3)n2O)c1", "Potency": "inconclusive [inhibitor, partial curve]"},
      {"smiles": "COc1cccc(-c2cc(=O)c3ccccc3o2)c1N", "Potency": "inactive and active: 5.01 µM"},
      {"smiles": "CCN(CC)CCCNC(=O)c1cc2nc3c(c(C(F)(F)F)n2n1)CCc1ccccc1-3", "Potency": "inconclusive [inhibitor, single point]"},
      {"smiles": "COc1cccc(-n2cc(CN(C)Cc3nc(Cc4ccccc4)no3)cn2)c1", "Potency": "inconclusive [inhibitor, single point]"},
      {"smiles": "C/C(CCCO)=N/Nc1ccc([N+](=O)[O-])cc1[N+](=O)[O-]", "Potency": "inconclusive [inhibitor, partial curve]"},
      {"smiles": "NC[C@](O)(CS(=O)(=O)O)c1ccc(Cl)cc1", "activity change, negative = inhibition": "inactive: 4.6%"},
      {"smiles": "Cc1oc2c(CN3CCCC3)c(O)ccc2c(=O)c1-c1ccc(Cl)cc1", "Potency": "inconclusive [inhibitor, partial curve]"},
      {"smiles": "Cn1c(SCC(=O)N2CCCC2)nc2cccnc21", "activity change, negative = inhibition": "inactive: -6.2%"},
      {"smiles": "COc1ccc(/C=C/C(=O)Nc2ccccc2C)cc1S(=O)(=O)N1CCOCC1", "Potency": "inconclusive [inhibitor, single point]"},
      {"smiles": "Cc1cc(/C=C(\\C#N)C(=O)Nc2ccc(Cl)cc2)c(C)n1-c1ccc(N2CCOCC2)c([N+](=O)[O-])c1", "Potency": "inconclusive [inhibitor, single point]"},
      {"smiles": "CCCCCc1cc(=O)oc2c(C(CCN3CCN(c4ccccc4)CC3)c3ccc(N(C)C)cc3)c(OC)cc(OC)c12", "note": "(stereo not drawn)", "Potency": "inconclusive [inhibitor, partial curve]"},
      {"smiles": "O=C(c1ccc(S(=O)(=O)NCC2CCCO2)cc1)N1CCN(c2cccc(Cl)c2)CC1", "note": "(stereo not drawn)", "Potency": "inconclusive [inhibitor, single point]"},
      {"smiles": "C=CCOC(=O)N[C@H](/C(C(=O)OC)=C(\\C)NCc1ccccc1)c1ccc(C)cc1", "activity change, negative = inhibition": "inactive: 0.6%"},
      {"smiles": "COc1ccc(C2N(c3ccc(C)cc3)CCN2c2ccc(C)cc2)cc1O", "Potency": "inconclusive [inhibitor, partial curve]"},
      {"smiles": "CC(C)c1ccc(/C=C(\\c2nc3ccccc3[nH]2)S(=O)(=O)c2ccccc2)cc1", "activity change, negative = inhibition": "inactive: -2.98%"},
      {"smiles": "C(=N\\Nc1nc2ccccc2[nH]1)/c1ccccn1", "activity change, negative = inhibition": "inactive: -4.66%"},
      {"smiles": "Cn1c(N)c(C(=O)COC(=O)c2cc(-c3ccccc3)nc3ccccc23)c(=O)n(C)c1=O", "Potency": "inconclusive [inhibitor, single point]"},
      {"smiles": "COC(=O)NC(c1ccccc1)C1(C(=O)OC)C(=O)Cc2ccccc21", "note": "(stereo not drawn)", "activity change, negative = inhibition": "inactive: -0.861%"},
      {"smiles": "O=C1NC(c2ccc(Cl)cc2)Nc2ccccc21", "note": "(stereo not drawn)", "Potency": "inconclusive [activator, partial curve, poor fit]"},
      {"smiles": "COc1cccc(-c2nc(NCc3ccco3)c3ccccc3n2)c1O", "Potency": "inconclusive [inhibitor, single point]"},
      {"smiles": "COc1ccc(N(CC(=O)Nc2cccc(C(F)(F)F)c2)S(C)(=O)=O)cc1", "activity change, negative = inhibition": "inactive: -6.67%"},
      {"smiles": "COc1ccc(C(=O)/C(C#N)=N/Nc2ccccc2[N+](=O)[O-])cc1", "Potency": "inconclusive [inhibitor, partial curve]"},
      {"smiles": "Cc1ccc2c(c1)c1c(n2CC(O)CN2CCC(C)CC2)CCCC1", "note": "(stereo not drawn)", "Potency": "inconclusive [inhibitor, single point]"},
      {"smiles": "COCCN1C(=O)c2oc3ccccc3c(=O)c2C1c1ccc(OC)c(OC)c1", "note": "(stereo not drawn)", "Potency": "inconclusive [inhibitor, partial curve]"},
      {"smiles": "Nc1nc2ccc(OC(F)(F)F)cc2s1", "Potency": "inconclusive [inhibitor, full curve]"},
      {"smiles": "O=c1[nH]c(CSc2ccccc2)nc2c1oc1ccccc12", "Potency": "inconclusive [inhibitor, single point]"},
      {"smiles": "CCC(=O)N1CCN(c2nc(-c3ccc(Cl)cc3)cs2)CC1", "Potency": "inconclusive [inhibitor, single point]"},
      {"smiles": "CCOC(=O)C1(CCCCCCOc2ccc(Cl)cc2)CO1", "note": "(stereo not drawn)", "Potency": "inconclusive [inhibitor, single point]"},
      {"smiles": "COc1ccc(S(=O)(=O)N(C)CC(=O)Nc2ccc(C(N)=O)cc2)cc1OC", "activity change, negative = inhibition": "inactive: -0.39%"},
      {"smiles": "Cc1nc2ccc(NC(=O)c3cccc(S(=O)(=O)N(C)c4ccccc4)c3)cc2s1", "Potency": "inconclusive [inhibitor, single point]"},
      {"smiles": "O=C(NCC1CCCO1)C(c1ccc(F)cc1)N(CC1CCCO1)C(=O)c1ccc(-c2ccccc2)[nH]1", "note": "(stereo not drawn)", "Potency": "inconclusive [inhibitor, single point]"},
      {"smiles": "O=C(COc1ccccc1Cl)NCCc1ccc2c(c1)OCCO2", "Potency": "inconclusive [inhibitor, single point]"},
      {"smiles": "CN1CCc2c(cc(O)c(O)c2Cl)C(c2cccc(Cl)c2)C1", "note": "(stereo not drawn)", "Potency": "inconclusive [inhibitor, single point]"},
      {"smiles": "COC(=O)C1=CN(C2CC2)C=C(C(=O)OC)C1c1ccc(C(F)(F)F)cc1", "Potency": "inconclusive [activator, single point]"},
      {"smiles": "COc1ccc(C(=O)N2CCC3(CCN(CC(C)C)CC3)CC2)cc1", "activity change, negative = inhibition": "inactive: 11%"},
      {"smiles": "COc1cc(OC)cc(C(=O)NC(=S)Nc2ccc(N3CCCC3)cc2)c1", "Potency": "inconclusive [inhibitor, partial curve]"},
      {"smiles": "COc1ccc(-n2c(SCc3ccc([N+](=O)[O-])cc3)nnc2-c2ccccc2)cc1", "Potency": "inconclusive [activator, full curve, poor fit]"}
    ]}
  ]
}
